Results as given in PubChem BioAssay (NCATS).
The shares of active, inactive and inconclusive entries below differ from those in the screen. For part of these data: A potency beside an inconclusive call is a rough fit, not a confirmed value. The source made the active and inactive calls. Calls follow the shape of the dose curve; as a rule, active = well fitted curve in the direction sought with a large enough effect; inconclusive = small, poorly fitted or top-dose-only effect, or another doubt; inactive = no such curve, though single readings can be large; an effect the other way counts as inactive or inconclusive.

What was measured:
[1] = qHTS of pediatric cancer cell lines to identify multiple opportunities for drug repurposing: Primary screen for A673 cells (AID 1347092); settings: A673 Ewing sarcoma viability, CellTiter-Glo ATP luminescence, 48 h; series mostly up to 46 µM; also: nearly all actives have a fitted effect of over 45% in size
Outline: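 Luminescence from CellTiter-Glo, taken after 15 min at room temperature, served as the proxy for metabolically active cells following 48 h treatment. Both potency and efficacy were taken from curves fitted to the titration data.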

[2] = qHTS of pediatric cancer cell lines to identify multiple opportunities for drug repurposing: Confirmatory screen for BT-12 cells (AID 1347112); settings: BT-12 rhabdoid tumor cells, viability; series mostly up to 45.9 µM; also: nearly all actives have a fitted effect of over 55% in size
Outline: (§1)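 Viability after 48 h compound treatment at 37C, 500-1,000 cells/well, read as ATP luminescence with CellTiter-Glo. Primary screens used 11-point (MIPE, 0.78 nM-46 µM) or 8-point (NPC, 0.59 nM-46 µM) final concentrations; follow-up screens used 11-point dilutions.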

[3] = qHTS of pediatric cancer cell lines to identify multiple opportunities for drug repurposing: Confirmatory screen for SJ-GBM2 cells (AID 1347116); settings: SJ-GBM2 glioblastoma cells, viability; series mostly up to 45.9 µM; also: nearly all actives have a fitted effect of over 60% in size
Outline: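 Viability measured as metabolically active cells via CellTiter-Glo luminescence following 48 hours of compound exposure, 11-point dilutions in confirmatory testing. 500-1,000 cells/well plated 5 hours before dosing; controls were DMSO and 2.3 µM bortezomib.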

[4] = qHTS of pediatric cancer cell lines to identify multiple opportunities for drug repurposing: Confirmatory screen for Saos-2 cells (AID 1347127); settings: Saos-2 osteosarcoma cell viability; series mostly up to 45.9 µM; also: nearly all actives have a fitted effect of over 60% in size
Outline: as §1

[5] = Quantitative High-Throughput drug screen in 47 multiple myeloma cell lines against the NCATS MIPE library collection: AMO1_DSMZ cell viability assay (AID 1918927; also: nearly all actives have a fitted effect of over 30% in size); settings: AMO1 myeloma cells viability, CellTiter-Glo ATP luminescence, 48 h; series mostly up to 45.8 µM
Outline: (§2)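 Inhibition of cell viability is measured here. Each line was plated at 500 cells per well, treated with MIPE 4.0 drugs, kept 48 hours at 37C, then assayed for ATP content by CellTiter-Glo luminescence.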

[6] = Quantitative High-Throughput drug screen in 47 multiple myeloma cell lines against the NCATS MIPE library collection: MM1S_ATCC cell viability assay (AID 1918980); settings: MM1S myeloma viability, CellTiter-Glo ATP luminescence, 48 h; series mostly up to 45.8 µM; also: nearly all actives have a fitted effect of over 45% in size
Outline: (§3)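 500 cells/well per myeloma line exposed to pinned MIPE 4.0 compounds for 48 h at 37 °C, 5% CO2. Viability read as ATP by CellTiter-Glo luminescence, normalised to DMSO-only (100%) and media-only (0%) wells.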

[7] = Quantitative High-Throughput drug screen in 47 multiple myeloma cell lines against the NCATS MIPE library collection: XG6_PLB cell viability assay (AID 1919865); settings: XG6 myeloma viability, CellTiter-Glo ATP luminescence, 48 h; viability (% of control): at 45.8 µM (top of the series); also: nearly all actives have a fitted effect of over 40% in size
Outline: as §3

[8] = Quantitative High-Throughput drug screen in 47 multiple myeloma cell lines against the NCATS MIPE library collection: OPM2_DSMZ cell viability assay (AID 1919872); settings: OPM2 myeloma viability, CellTiter-Glo ATP luminescence, 48 h; series mostly up to 45.8 µM; also: nearly all actives have a fitted effect of over 30% in size
Outline: as §2

[9] = Quantitative High-Throughput drug screen in 47 multiple myeloma cell lines against the NCATS MIPE library collection: KMS11_JCRBsus cell viability assay (AID 1919873); settings: KMS11 myeloma viability, CellTiter-Glo ATP luminescence, 48 h; series mostly up to 45.8 µM; also: nearly all actives have a fitted effect of over 50% in size
Outline: as §3

WaGa = experiment: qHTS assay to identify novel small-molecules to repurpose for Merkel cell carcinoma treatment (AID 1296009); settings: MCC and control cell lines, CellTiter-Glo viability, 72 h; series mostly up to 46 µM; also: nearly all actives have a fitted effect of over 60% in size
Outline: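 Cells were treated for 72 hr at 37 degree celsius with compounds in 8- or 11-point dose response. Viability was read by CellTiter-Glo luminescence, normalized to no-cell (cytotoxicity) and DMSO controls.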

[10] = qHTS of pediatric cancer cell lines to identify multiple opportunities for drug repurposing: Confirmatory screen for Rh18 cells (AID 1347125); settings: Rh18 rhabdomyosarcoma cells, viability; series mostly up to 45.9 µM; also: nearly all actives have a fitted effect of over 55% in size
Outline: as §1

[11] = Quantitative High-Throughput drug screen in 47 multiple myeloma cell lines against the NCATS MIPE library collection: KMS26_JCRB cell viability assay (AID 1918975); settings: KMS26 myeloma cells viability, CellTiter-Glo ATP, 48 h; series mostly up to 45.8 µM; also: nearly all actives have a fitted effect of over 45% in size
Outline: (§4)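 Myeloma cell lines, 500 cells per well, exposed to MIPE 4.0 library compounds for 48 h at 37C, 5% CO2. Viability from ATP by CellTiter-Glo luminescence; normalised to DMSO (100%) and media-only (0%) wells.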

[12] = Quantitative High-Throughput drug screen in 47 multiple myeloma cell lines against the NCATS MIPE library collection: FR4_PLB cell viability assay (AID 1918924; also: nearly all actives have a fitted effect of over 35% in size); settings: FR4_PLB myeloma cells viability, CellTiter-Glo ATP, 48 h; series mostly up to 45.8 µM
Outline: as §4

[13] = Quantitative High-Throughput drug screen in 47 multiple myeloma cell lines against the NCATS MIPE library collection: ARP1_JJKsccF8 cell viability assay (AID 1918928; also: nearly all actives have a fitted effect of over 40% in size); settings: ARP1 myeloma cells viability, CellTiter-Glo ATP, 48 h; series mostly up to 45.8 µM
Outline: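 Luminescence from CellTiter-Glo, taken after 5 min at room temperature, reports cellular ATP as viability. Cells (500 per well) had been treated 48 h at 37 °C with MIPE 4.0 compounds, scaled between DMSO and medium-only controls.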

[14] = Quantitative High-Throughput drug screen in 47 multiple myeloma cell lines against the NCATS MIPE library collection: INA6_PLB cell viability assay (AID 1918965; also: nearly all actives have a fitted effect of over 55% in size); settings: INA6 myeloma viability, CellTiter-Glo ATP luminescence, 48 h; viability (% of control): at 45.8 µM (top of the series)
Outline: as §4

[15] = Quantitative High-Throughput drug screen in 47 multiple myeloma cell lines against the NCATS MIPE library collection: KMS28PE_JCRB cell viability assay (AID 1918983); settings: KMS28PE multiple myeloma viability, CellTiter-Glo ATP, 48 h; series mostly up to 45.8 µM; also: nearly all actives have a fitted effect of over 35% in size
Outline: as §3

[16] = molecular target: Glutathione peroxidase 1 (Homo sapiens) (UniProt P07203); experiment: Primary qHTS Assay for Inhibitors of Recombinant Selenoprotein Glutathione Peroxidase 1 (GPX1) (AID 1845191); settings: recombinant GPX1, GR-coupled NADPH fluorescence, 15 min; series mostly up to 48.8 µM; also: nearly all actives have a fitted effect of over 65% in size
Outline: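 GR-coupled assay: compounds preincubated 30 min at room temperature with GPX1, then reaction started with CHP; final 10 nM GPX1, 1 mM GSH, 0.5 mM CHP, 0.5 mM NADPH, 100 nM GR, 0.01% BSA, pH 7.5 Tris buffer. NADPH fluorescence (340/450 nm) read at 0 and 15 min.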

[17] = test system: Zika virus NS2B-NS3 protease; experiment: Primary screen GU AMC qHTS for Zika virus inhibitors (AID 1347154); settings: Zika NS2B-NS3 unlinked protease, AMC fluorogenic substrate; series mostly up to 54.1 µM; also: nearly all actives have a fitted effect of over 70% in size
Outline: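 Unlinked Zika NS2B hydrophilic domain–NS3 protease complex at 25 nM in 10 mM Tris-HCl pH 8.0, 0.01% Tween 20, with an AMC peptide substrate. Fluorescence change (340/450 nm) over 15 min at room temperature, normalized to controls, fitted to 4-parameter Hill.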

Measured: Potency
Potency is read from the fitted curve at half-maximal effect; tags tell the direction and shape of the fitted curve.

UniProt P07203, sequence (P07203 whole entry, looked up): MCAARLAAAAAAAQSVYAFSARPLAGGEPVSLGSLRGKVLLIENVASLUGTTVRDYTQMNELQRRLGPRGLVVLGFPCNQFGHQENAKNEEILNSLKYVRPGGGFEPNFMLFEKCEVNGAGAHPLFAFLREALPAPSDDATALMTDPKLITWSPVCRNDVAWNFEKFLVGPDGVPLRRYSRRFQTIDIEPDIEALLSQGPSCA

CS(=O)(=O)N1CCc2c(-c3cnc(N)nc3)nc(N3CCOCC3)nc21
inconclusive: [2] 7370 nM [cytotoxic, partial curve, poor fit] | [5] 743 nM [cytotoxic, full curve] | [9] 59 nM [cytotoxic, full curve] | WaGa 166 nM [inhibitor, full curve]
active: [1] 935 nM | [3] 7370 nM | [4] 2330 nM | [6] 235 nM | [7] 743 nM | [8] 1050 nM

Cc1cc(Nc2ncc3c(n2)N(C)C(=O)N(c2cc(NC(=O)c4cccc(C(F)(F)F)c4)ccc2C)C3)n(C)n1
inconclusive: [2] 585 nM [cytotoxic, full curve] | [3] 522 nM [cytotoxic, full curve] | WaGa 14800 nM [inhibitor, partial curve]
active: [10] 737 nM | [11] 5900 nM | [9] 235 nM

CNC(=O)c1c(F)cccc1Nc1nc(Nc2cc3c(cc2OC)CCN3C(=O)CN(C)C)nc2[nH]ccc12
active: [3] 928 nM | [4] 3690 nM | [11] 264 nM | WaGa 18700 nM
inconclusive: [2] 36900 nM [cytotoxic, single point] | [5] 148 nM [cytotoxic, full curve, poor fit] | [6] 59 nM [cytotoxic, full curve, poor fit]

CCOc1cc2c(c(F)c1OCC)C(=N)N(CC(=O)c1cc(N3CCOCC3)c(OC)c(C(C)(C)C)c1)C2
inconclusive: [5] 2.3 nM [rising, full curve, poor fit]
active: [12] 23500 nM | [13] 18700 nM | [14] 11800 nM | [15] 20900 nM

O=C(Nc1nc2cccc(-c3ccc(CN4CCS(=O)(=O)CC4)cc3)n2n1)C1CC1
active: [12] 9350 nM | [15] 13200 nM | [9] 13200 nM
inconclusive: [16] 20500 nM [inhibitor, partial curve, poor fit] | [8] 23500 nM [cytotoxic, partial curve]

COc1cc2c(cc1O)CCC1C2CC[C@@]2(C)C1CC[C@@H]2O (some centres undefined)
inconclusive: [5] 332 nM [cytotoxic, full curve, poor fit] | [13] 1320 nM [cytotoxic, full curve] | [15] 2640 nM [cytotoxic, full curve]
active: [6] 4690 nM | [8] 3720 nM

OC1(c2ccc(Cl)c(C(F)(F)F)c2)CCN(CCCC(c2ccc(F)cc2)c2ccc(F)cc2)CC1
inconclusive: [17] 8910 nM [inhibitor, full curve, poor fit]
